According to PMC8572914:
Results are given in words; binding and its absence hold for the method and conditions named. In cells and extracts the contact can be indirect. Some binding calls cover weakened binding; strength is not graded here. Where a sequence is shown, tags or fusion partners need not be part of it.

Sequences of proteins named here, by UniProt entry; tags and fusion partners are left off.
UniProt P61168: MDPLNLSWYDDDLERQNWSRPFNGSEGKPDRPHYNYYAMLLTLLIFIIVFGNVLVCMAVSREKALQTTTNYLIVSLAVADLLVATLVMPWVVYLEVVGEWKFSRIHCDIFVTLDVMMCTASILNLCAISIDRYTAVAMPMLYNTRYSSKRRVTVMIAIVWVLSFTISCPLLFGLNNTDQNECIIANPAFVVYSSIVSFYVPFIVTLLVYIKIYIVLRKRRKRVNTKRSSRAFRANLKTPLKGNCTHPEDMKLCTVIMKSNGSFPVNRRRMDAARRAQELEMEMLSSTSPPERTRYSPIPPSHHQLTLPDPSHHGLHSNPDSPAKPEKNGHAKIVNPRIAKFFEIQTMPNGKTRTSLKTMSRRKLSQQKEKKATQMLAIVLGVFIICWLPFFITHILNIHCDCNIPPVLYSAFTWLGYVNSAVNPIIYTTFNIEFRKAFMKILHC
UniProt P56450: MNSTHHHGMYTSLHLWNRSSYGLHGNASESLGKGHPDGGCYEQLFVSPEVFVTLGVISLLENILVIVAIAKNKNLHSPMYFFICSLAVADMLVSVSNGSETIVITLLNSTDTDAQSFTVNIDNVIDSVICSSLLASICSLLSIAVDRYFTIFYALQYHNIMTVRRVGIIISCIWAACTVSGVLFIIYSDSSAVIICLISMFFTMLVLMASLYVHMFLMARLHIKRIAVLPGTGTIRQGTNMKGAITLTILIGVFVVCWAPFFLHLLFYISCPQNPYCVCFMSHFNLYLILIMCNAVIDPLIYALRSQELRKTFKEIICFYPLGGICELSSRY

What was measured:
[1] = molecular target: 3HA-tagged dopamine receptor D2 (UniProt P61168); test: co-IP; HEK293 cells co-transfected with 3HA-MC4R or 3HA-D2dr and 2FLAG-MRAP2 variants or 2FLAG-RAMP3; MRAP2 variants and RAMP3 detected with mouse anti-Flag antibody; beads only as control
[2] = molecular target: 3HA-tagged mouse melanocortin-4 receptor (mouse) (UniProt P56450); test: as above
[3] = molecular target: mouse MRAP2 variant V (N- and C-terminal transposition), 2FLAG-tagged / 3HA-tagged (mouse) (UniProt D3Z1Q2); test: co-IP; HEK293T cells co-transfected with 2FLAG-tagged and 3HA-tagged copies of one variant at a ratio of 1:1; lysate incubated with mouse anti-HA or anti-FLAG overnight at 4°C, protein A+G agarose beads; Western blot
[4] = molecular target: FLAG-MC4R-VF2 (mouse melanocortin-4 receptor with Venus fragment VF2) (mouse) (UniProt P56450); test: split reporter; BiFC: VF1-X and FLAG-MC4R-VF2 co-transfected in HEK293T cells; fixed 24 h after transfection, confocal microscopy
[5] = molecular target: wild-type mouse MRAP2 with Venus fragment (VF1-MRAP2 / FLAG-MRAP2-VF2) (mouse) (UniProt D3Z1Q2); test: split reporter; BiFC: VF1-X and FLAG-X-VF2 (Venus fragments on opposite ends of MRAP2 or its variants) co-transfected in HEK293T cells; fixed 24 h after transfection, confocal microscopy
[6] = molecular target: mouse MRAP2 variant V (N- and C-terminal transposition) with Venus fragment (VF1-X / FLAG-X-VF2) (mouse) (UniProt D3Z1Q2); test: as above

Binder	binding [2]	binding [4]	other results
mouse MRAP2 variant V (N- and C-terminal transposition), 2FLAG-tagged / 3HA-tagged (protein, UniProt D3Z1Q2 68-207; D3Z1Q2 47-67; D3Z1Q2 1-46) LLTKTGAPHQDNAESSERRFRMNSFVSDFGKPLESDKVFSRQGNEESRSLFHCYINEVEHLDRVKVCHQTTAIDSDVHLQEASRSSGRPEEELARFMKFDIPNFVNTEQSSFGEDDLLISEAPVLLENKPVSQTSRIDLDIVIGFWVGLAVFVIFMFFVLTMEMSAQRLASNRTSPQSPSNSDYTWEYEYYEIGPVSFEGLKAHKYS	binds	–	binding [1]: no binding; binding [3]: binds
wild-type mouse MRAP2 with Venus fragment (VF1-MRAP2 / FLAG-MRAP2-VF2) (protein, UniProt D3Z1Q2 1-207) MEMSAQRLASNRTSPQSPSNSDYTWEYEYYEIGPVSFEGLKAHKYSIVIGFWVGLAVFVIFMFFVLTLLTKTGAPHQDNAESSERRFRMNSFVSDFGKPLESDKVFSRQGNEESRSLFHCYINEVEHLDRVKVCHQTTAIDSDVHLQEASRSSGRPEEELARFMKFDIPNFVNTEQSSFGEDDLLISEAPVLLENKPVSQTSRIDLD	–	binds	binding [5]: binds
mouse MRAP2 variant V (N- and C-terminal transposition) with Venus fragment (VF1-X / FLAG-X-VF2) (protein, UniProt D3Z1Q2 68-207; D3Z1Q2 47-67; D3Z1Q2 1-46) LLTKTGAPHQDNAESSERRFRMNSFVSDFGKPLESDKVFSRQGNEESRSLFHCYINEVEHLDRVKVCHQTTAIDSDVHLQEASRSSGRPEEELARFMKFDIPNFVNTEQSSFGEDDLLISEAPVLLENKPVSQTSRIDLDIVIGFWVGLAVFVIFMFFVLTMEMSAQRLASNRTSPQSPSNSDYTWEYEYYEIGPVSFEGLKAHKYS	–	binds	binding [6]: binds
2FLAG-tagged RAMP3 (protein, UniProt Q9WUP1 23-147) QVCGCNETGMLERLPRCGKAFADMMQKVAVWKWCNLSEFIVYYESFTNCTEMETNIMGCYWPNPLAQSFITGIHRQFFSNCTVDRTHWEDPPDEVLIPLIAVPVVLTVAMAGLVVWRSKHTDRLL	no binding	–	–
